{"source": "PubChem BioAssay AID2675", "about": "(National Center for Advancing Translational Sciences (NCATS), 2010)", "note": "Screen size: about 280,000 compounds; about 100 (0.036%) were called active. This list was built around the results that the source calls inconclusive (neither active nor inactive); the mix of calls is not that of the screen. The call rests on the fitted dose curve; in most records, active means well fitted inhibition curve with a large enough effect in the signal ratio, with a control signal flat (not every such curve was filed as active); inconclusive means small, poorly fitted or top-dose-only effect, or effect the other way, or a change in a side signal; inactive means no such curve, though single readings can be large or run the other way; the % refers to the signal ratio. Potencies of inconclusive entries are doubtful fits and often do not repeat. “Side channel” marks fits to a control or component signal instead of the main read-out. On the % scale 0 is the no-effect control and ±100 the full control effect; potency means the concentration at half of the fitted maximal effect; tags describe the fitted curve by direction and shape or compound fluorescence and quenching."}
{"target": "Muscleblind-like protein 1 (Homo sapiens) (UniProt Q9NR56)", "sequence (Q9NR56 whole entry, looked up)": "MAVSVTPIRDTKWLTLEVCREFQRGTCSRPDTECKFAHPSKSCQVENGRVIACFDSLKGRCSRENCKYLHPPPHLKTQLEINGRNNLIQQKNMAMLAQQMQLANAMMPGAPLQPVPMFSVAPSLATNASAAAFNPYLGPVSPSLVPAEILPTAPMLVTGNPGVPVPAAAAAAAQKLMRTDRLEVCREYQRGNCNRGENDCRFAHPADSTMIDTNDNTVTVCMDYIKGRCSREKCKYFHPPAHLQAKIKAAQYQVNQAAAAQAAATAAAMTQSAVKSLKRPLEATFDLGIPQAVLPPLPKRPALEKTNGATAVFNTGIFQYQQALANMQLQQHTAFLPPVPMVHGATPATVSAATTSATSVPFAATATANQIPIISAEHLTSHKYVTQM", "test": "qHTS Assay for Inhibitors of MBNL1-poly(CUG) RNA binding", "details": "TR-FRET MBNL1-His/biotin-(CUG)12 binding, 665/545 ratio; activity change, negative = inhibition: at 57.5 µM (top of the series)", "how_it_was_run": "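Compounds (final 92 nM to 58 uM) are added to His-tagged MBNL1 and biotin-(CUG)12, then terbium anti-His antibody and streptavidin-XL665 (5 nM final). After 60 min at room temperature, the 665/545 nm ratio is read.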"}
{"smiles": "Cc1[nH]c(C)c(C(=O)/C=C/c2ccc([N+](=O)[O-])cc2)c1C", "Potency": "inconclusive: 11.2 µM [quencher, side channel, partial curve]"}
{"smiles": "CNc1ccc(S(=O)(=O)NC)cc1[N+](=O)[O-]", "Potency": "inconclusive: 11.2 µM [quencher, partial curve]"}
{"smiles": "Cc1ccc(C2=N/C(=C\\N3CCCCC3)C(=O)O2)cc1", "Potency": "inconclusive: 31.6 µM [quencher, side channel, partial curve]"}
{"smiles": "CCCC[C@]12Cc3c(ccc4ccccc34)C(O1)C1=C(O2)C(=O)c2ccccc2C1=O", "activity change, negative = inhibition": "inactive: 8.54% [at 11.5 µM]"}
{"smiles": "CC(=O)Nc1ccc(OC(=O)c2ccc(Br)c([N+](=O)[O-])c2)cc1", "Potency": "inconclusive: 14.1 µM [quencher, side channel, partial curve]"}
{"smiles": "CCCCOc1ccc(CSc2nc(C)[nH]c2[N+](=O)[O-])cc1[N+](=O)[O-]", "Potency": "inconclusive: 31.6 µM [quencher, side channel, single point]"}
{"smiles": "Cc1cc([N+](=O)[O-])ccc1NC(=O)CCC(=O)N1CCCCCC1", "Potency": "inconclusive: 28.2 µM [quencher, partial curve]"}
{"smiles": "N#C/C(=C\\c1ccc(-c2cccc([N+](=O)[O-])c2)o1)C(=O)N1CCOCC1", "Potency": "inconclusive: 5.01 µM [quencher, side channel, full curve]"}
{"smiles": "Fc1ccccc1-c1nc2nc3ccccc3nc2n1CC1CCCO1", "note": "(stereo not given)", "Potency": "inconclusive: 20 µM [quencher, side channel, partial curve]"}
{"smiles": "O=C1CCCC(=O)N1c1ccc(N2CCN(c3ccc([N+](=O)[O-])cc3)CC2)c([N+](=O)[O-])c1", "Potency": "inconclusive: 17.8 µM [quencher, side channel, partial curve, poor fit]"}
{"smiles": "S=C(NCCc1ccc(Cl)cc1)Nc1ccc(Cl)cc1Cl", "Potency": "inconclusive: 3.55 µM [fluorescent, side channel, partial curve]"}
{"smiles": "COc1cc(/C=N/NC(=O)c2nnn(-c3nonc3N)c2-c2cccs2)ccc1O", "Potency": "inconclusive: 20 µM [quencher, side channel, partial curve]"}
{"smiles": "N#Cc1c(NC(=O)c2ccco2)sc2c1CCC2", "Potency": "inconclusive: 3.98 µM [quencher, side channel, full curve]"}
{"smiles": "Cc1ccc(C(=O)O)cc1-c1ccc(/C=C2/NC(=O)N(c3ccccc3)C2=O)o1", "Potency": "inconclusive: 25.1 µM [quencher, side channel, partial curve]"}
{"smiles": "COc1ccc(COC(=O)N/N=C/c2cccs2)cc1", "Potency": "inconclusive: 28.2 µM [quencher, side channel, single point]"}
{"smiles": "O=C(CN(C(=O)CCC(=O)Nc1nccs1)c1cccc(F)c1)NCC1CCCO1", "note": "(stereo not given)", "Potency": "inconclusive: 4.47 µM [quencher, side channel, single point]"}
{"smiles": "O=C(COc1ccc(Cl)cc1Cl)NNC(=S)Nc1ccc(F)cc1", "activity change, negative = inhibition": "inactive: -3.2%"}
{"smiles": "O=C(Cn1nnc(-c2ccncc2)n1)Nc1ccc2c(c1)CCC2", "Potency": "inconclusive: 0.794 µM [quencher, side channel, single point]"}
{"smiles": "CSc1c(C#N)c(N)nc2sc(C(=O)c3ccc(Cl)c(Cl)c3)c(N)c12", "Potency": "inconclusive: 39.8 µM [fluorescent, side channel, single point]"}
{"smiles": "CCOC(=O)N1CCN(C(=O)CCn2c(=O)[nH]c3ccsc3c2=O)CC1", "activity change, negative = inhibition": "inactive: -2.05%"}
{"smiles": "CCN(CC)CCN1C(=O)C(O)=C(C(=O)c2cccs2)C1c1ccccn1", "note": "(stereo not given)", "Potency": "inconclusive: 17.8 µM [quencher, side channel, partial curve]"}
{"smiles": "O=C(COc1ccccc1)N/N=C/c1sc(=O)n(Cc2cccc(C(=O)O)c2)c1Cl", "Potency": "inconclusive: 35.5 µM [quencher, side channel, single point]"}
{"smiles": "c1ccc(CNc2c3ccccc3nc3ccccc23)cc1", "Potency": "inconclusive: 14.1 µM [quencher, side channel, partial curve]"}
{"smiles": "CCOc1ccc(S(=O)(=O)Nc2cc(SCC(=O)O)c(O)c3ccccc23)cc1", "Potency": "inconclusive: 22.4 µM [quencher, side channel, partial curve]"}
{"smiles": "Cc1cc(NC(=O)c2cc3ccccc3oc2=O)no1", "Potency": "inconclusive: 1.41 µM [quencher, side channel, full curve, poor fit]"}
{"smiles": "C/C=C(\\C)C(=O)OC1c2c(ccc3ccc(=O)oc23)OC(C)(C)C1OC(C)=O", "note": "(stereo not given)", "Potency": "inconclusive: 8.91 µM [quencher, side channel, single point]"}
{"smiles": "CCOCCCNC(=O)C1CCCN1C(=O)Nc1ccccc1[N+](=O)[O-]", "note": "(stereo not given)", "Potency": "inconclusive: 17.8 µM [quencher, side channel, partial curve]"}
{"smiles": "CCOC(=O)c1cnn2c(C(F)(F)F)cc(-c3ccccc3)nc12", "Potency": "inconclusive: 31.6 µM [quencher, side channel, single point]"}
{"smiles": "COc1ccc(N=Cc2c(C)[nH][nH]c2=O)cc1", "Potency": "inconclusive: 22.4 µM [quencher, side channel, single point]"}
{"smiles": "Cc1ccc(CNC(=O)c2cc3c(=O)n4ccccc4nc3n(Cc3ccco3)c2=N)cc1", "Potency": "inconclusive: 3.16 µM [quencher, side channel, full curve]"}
{"smiles": "O=C(O)/C=C/c1ccc([N+](=O)[O-])o1", "Potency": "inconclusive: 17.8 µM [quencher, side channel, partial curve]"}
{"smiles": "Nc1nc(-c2ccccc2)c(N=Nc2cccc3ccccc23)s1", "Potency": "inconclusive: 11.2 µM [quencher, side channel, partial curve]"}
{"smiles": "O=C(NCC1CCCO1)c1ccc(N2CCCCC2)c([N+](=O)[O-])c1", "note": "(stereo not given)", "Potency": "inconclusive: 14.1 µM [quencher, side channel, partial curve]"}
{"smiles": "CSc1nc2sccc2c(=O)[nH]1", "Potency": "inconclusive: 251 µM [inhibitor, partial curve]"}
{"smiles": "COc1cc(/C=C/C(=O)c2cccc([N+](=O)[O-])c2)cc(OC)c1OC", "Potency": "inconclusive: 31.6 µM [quencher, side channel, partial curve]"}
